# Data published in the supplement of paper PMC8728848.
# This is one part of the list.
# Assays:
# Experiment in all cases: glycan array binding signal (z-score within array); higher = stronger binding
# Conditions in all cases: glycan notation: IUPAC condensed, linker removed
# [1] = target: Gal(b1-4)GlcNAc(b1-3)[GlcNAc(b1-6)]Gal(b1-4)GlcNAc
# Procedure, shortened: (§1)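 Glycan array data were curated from 3228 arrays in the Consortium for Functional Glycomics database and kept only where the protein sequence was available. Glycan names were converted to IUPAC-condensed notation, and columns mapping to the same glycan were averaged. The binding signal is a within-array Z-score, averaged across arrays of the same protein sequence at different concentrations or buffers and across linkers. Negative Z-scores can be read as non-binding.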
# [2] = target: Gal(b1-4)GlcNAc(b1-6)Gal(b1-4)GlcNAc
# Procedure, shortened: as §1
# [3] = target: Gal(b1-4)GlcNAc(b1-6)GalNAc
# Procedure, shortened: as §1
# [4] = target: Gal(b1-4)GlcNAc(b1-6)[Gal(b1-3)]GalNAc
# Procedure, shortened: as §1
# Gal(b1-4)GlcNAc6P = target: Gal(b1-4)GlcNAc6P
# Procedure, shortened: as §1
# Gal(b1-6)Gal = target: Gal(b1-6)Gal
# Procedure, shortened: as §1
# Gal3S(b1-3)GalNAc = target: Gal3S(b1-3)GalNAc
# Procedure, shortened: as §1
# Gal3S(b1-3)GlcNAc = target: Gal3S(b1-3)GlcNAc
# Procedure, shortened: as §1
# [5] = target: Gal3S(b1-3)[Fuc(a1-4)]GlcNAc
# Procedure, shortened: as §1
# Gal3S(b1-4)Glc = target: Gal3S(b1-4)Glc
# Procedure, shortened: as §1
# Gal3S(b1-4)Glc6S = target: Gal3S(b1-4)Glc6S
# Procedure, shortened: as §1
# Gal3S(b1-4)GlcNAc = target: Gal3S(b1-4)GlcNAc
# Procedure, shortened: as §1
# Gal3S(b1-4)GlcNAc6S = target: Gal3S(b1-4)GlcNAc6S
# Procedure, shortened: as §1
# [6] = target: Gal3S(b1-4)[Fuc(a1-3)]Glc
# Procedure, shortened: as §1
# [7] = target: Gal3S(b1-4)[Fuc(a1-3)]Glc6S
# Procedure, shortened: as §1
# Gal3S4S(b1-4)GlcNAc = target: Gal3S4S(b1-4)GlcNAc
# Procedure, shortened: as §1
# Gal3S6S(b1-4)GlcNAc = target: Gal3S6S(b1-4)GlcNAc
# Procedure, shortened: as §1
# Gal3S6S(b1-4)GlcNAc6S = target: Gal3S6S(b1-4)GlcNAc6S
# Procedure, shortened: as §1
# Gal4S(b1-4)GlcNAc = target: Gal4S(b1-4)GlcNAc
# Procedure, shortened: as §1
# Gal4S6S(b1-4)GlcNAc = target: Gal4S6S(b1-4)GlcNAc
# Procedure, shortened: as §1
# Gal6P(b1-4)GlcNAc = target: Gal6P(b1-4)GlcNAc
# Procedure, shortened: as §1
# Gal6S(b1-3)GlcNAc = target: Gal6S(b1-3)GlcNAc
# Procedure, shortened: as §1
# Gal6S(b1-3)GlcNAc6S = target: Gal6S(b1-3)GlcNAc6S
# Procedure, shortened: as §1
# Gal6S(b1-4)Glc = target: Gal6S(b1-4)Glc
# Procedure, shortened: as §1
# Gal6S(b1-4)Glc6S = target: Gal6S(b1-4)Glc6S
# Procedure, shortened: as §1
# Gal6S(b1-4)GlcNAc = target: Gal6S(b1-4)GlcNAc
# Procedure, shortened: as §1
# Gal6S(b1-4)GlcNAc6S = target: Gal6S(b1-4)GlcNAc6S
# Procedure, shortened: as §1
# GalNAc(a1-3)Gal = target: GalNAc(a1-3)Gal
# Procedure, shortened: as §1
# GalNAc(a1-3)GalNAc = target: GalNAc(a1-3)GalNAc
# Procedure, shortened: as §1
# [8] = target: GalNAc(a1-3)GalNAc(b1-3)Gal(a1-4)Gal(b1-4)Glc
# Procedure, shortened: as §1
# [9] = target: GalNAc(a1-3)GalNAc(b1-3)Gal(a1-4)Gal(b1-4)GlcNAc
# Procedure, shortened: as §1
# GalNAc(b1-3)Gal = target: GalNAc(b1-3)Gal
# Procedure, shortened: as §1
# [10] = target: GalNAc(b1-3)Gal(a1-4)Gal(b1-4)GlcNAc
# Procedure, shortened: as §1
# [11] = target: GalNAc(b1-3)Gal(a1-4)Gal(b1-4)GlcNAc(b1-3)Gal(b1-4)Glc
# Procedure, shortened: as §1
# [12] = target: GalNAc(b1-3)Gal(a1-6)Gal(b1-4)Glc
# Procedure, shortened: as §1
# GalNAc(b1-3)GalNAc = target: GalNAc(b1-3)GalNAc
# Procedure, shortened: as §1
# GalNAc(b1-4)Gal(b1-4)Glc = target: GalNAc(b1-4)Gal(b1-4)Glc
# Procedure, shortened: as §1
# GalNAc(b1-4)GlcNAc = target: GalNAc(b1-4)GlcNAc
# Procedure, shortened: as §1
# [13] = target: GalNAc(b1-4)GlcNAc(b1-2)Man(a1-3)[GalNAc(b1-4)GlcNAc(b1-2)Man(a1-6)]Man(b1-4)GlcNAc(b1-4)GlcNAc
# Procedure, shortened: as §1
# GalNAc(b1-4)GlcNAc6S = target: GalNAc(b1-4)GlcNAc6S
# Procedure, shortened: as §1
# GalNAc(b1-6)GalNAc = target: GalNAc(b1-6)GalNAc
# Procedure, shortened: as §1
# GalNAc3S(b1-4)GlcNAc = target: GalNAc3S(b1-4)GlcNAc
# Procedure, shortened: as §1
# GalNAc3S(b1-4)GlcNAc3S = target: GalNAc3S(b1-4)GlcNAc3S
# Procedure, shortened: as §1
# GalNAc4S6S(b1-4)GlcNAc = target: GalNAc4S6S(b1-4)GlcNAc
# Procedure, shortened: as §1
# GalNAc6S(b1-4)GlcNAc = target: GalNAc6S(b1-4)GlcNAc
# Procedure, shortened: as §1
binder,measurement,setting,value
CIH1 (Colletotrichum higginsianum) (protein) LPQATPTTPTPTSASAAATISATSSPTCSPGPVIDYTVVSGDTLTIISQRFSSGICNIADASGITNPNFLSLGQVLQVPTYVCTPDNTSCLAKEGSDTCVEGGPATHTIVAGDTFFLVAQSLGLDVNALLAANEGVDPLLLQIGDVINIPVC,glycan array binding signal (z-score),[1],-0.073
same,glycan array binding signal (z-score),[2],-0.078
same,glycan array binding signal (z-score),[3],-0.06
same,glycan array binding signal (z-score),[4],-0.072
same,glycan array binding signal (z-score),Gal(b1-4)GlcNAc6P,-0.083
same,glycan array binding signal (z-score),Gal(b1-6)Gal,-0.072
same,glycan array binding signal (z-score),Gal3S(b1-3)GalNAc,-0.067
same,glycan array binding signal (z-score),Gal3S(b1-3)GlcNAc,-0.054
same,glycan array binding signal (z-score),[5],-0.079
same,glycan array binding signal (z-score),Gal3S(b1-4)Glc,-0.073
same,glycan array binding signal (z-score),Gal3S(b1-4)Glc6S,-0.071
same,glycan array binding signal (z-score),Gal3S(b1-4)GlcNAc,-0.067
same,glycan array binding signal (z-score),Gal3S(b1-4)GlcNAc6S,-0.071
same,glycan array binding signal (z-score),[6],-0.081
same,glycan array binding signal (z-score),[7],0.006
same,glycan array binding signal (z-score),Gal3S4S(b1-4)GlcNAc,-0.022
same,glycan array binding signal (z-score),Gal3S6S(b1-4)GlcNAc,-0.063
same,glycan array binding signal (z-score),Gal3S6S(b1-4)GlcNAc6S,-0.065
same,glycan array binding signal (z-score),Gal4S(b1-4)GlcNAc,-0.061
same,glycan array binding signal (z-score),Gal4S6S(b1-4)GlcNAc,-0.059
same,glycan array binding signal (z-score),Gal6P(b1-4)GlcNAc,-0.07
same,glycan array binding signal (z-score),Gal6S(b1-3)GlcNAc,-0.057
same,glycan array binding signal (z-score),Gal6S(b1-3)GlcNAc6S,-0.054
same,glycan array binding signal (z-score),Gal6S(b1-4)Glc,-0.079
same,glycan array binding signal (z-score),Gal6S(b1-4)Glc6S,-0.08
same,glycan array binding signal (z-score),Gal6S(b1-4)GlcNAc,-0.081
same,glycan array binding signal (z-score),Gal6S(b1-4)GlcNAc6S,-0.061
same,glycan array binding signal (z-score),GalNAc(a1-3)Gal,-0.078
same,glycan array binding signal (z-score),GalNAc(a1-3)GalNAc,-0.072
same,glycan array binding signal (z-score),[8],-0.088
same,glycan array binding signal (z-score),[9],-0.066
same,glycan array binding signal (z-score),GalNAc(b1-3)Gal,-0.033
same,glycan array binding signal (z-score),[10],-0.079
same,glycan array binding signal (z-score),[11],-0.089
same,glycan array binding signal (z-score),[12],-0.07
same,glycan array binding signal (z-score),GalNAc(b1-3)GalNAc,-0.061
same,glycan array binding signal (z-score),GalNAc(b1-4)Gal(b1-4)Glc,-0.067
same,glycan array binding signal (z-score),GalNAc(b1-4)GlcNAc,-0.045
same,glycan array binding signal (z-score),[13],-0.07
same,glycan array binding signal (z-score),GalNAc(b1-4)GlcNAc6S,-0.056
same,glycan array binding signal (z-score),GalNAc(b1-6)GalNAc,-0.068
same,glycan array binding signal (z-score),GalNAc3S(b1-4)GlcNAc,-0.066
same,glycan array binding signal (z-score),GalNAc3S(b1-4)GlcNAc3S,-0.07
same,glycan array binding signal (z-score),GalNAc4S6S(b1-4)GlcNAc,-0.071
same,glycan array binding signal (z-score),GalNAc6S(b1-4)GlcNAc,-0.075
